{"source": "paper PMC4336329", "about": "(PLoS ONE, 2015)", "note": "The campaign covered roughly 310,000 compounds. About 2,200 (0.71%) showed an effect of 50% or more. The effect is printed as a negative number. This is one part of the list."}
{"molecular_target": "human ether-à-go-go-related gene (hERG) potassium channel (human, UniProt Q12809)", "sequence (Q12809 whole entry, looked up)": "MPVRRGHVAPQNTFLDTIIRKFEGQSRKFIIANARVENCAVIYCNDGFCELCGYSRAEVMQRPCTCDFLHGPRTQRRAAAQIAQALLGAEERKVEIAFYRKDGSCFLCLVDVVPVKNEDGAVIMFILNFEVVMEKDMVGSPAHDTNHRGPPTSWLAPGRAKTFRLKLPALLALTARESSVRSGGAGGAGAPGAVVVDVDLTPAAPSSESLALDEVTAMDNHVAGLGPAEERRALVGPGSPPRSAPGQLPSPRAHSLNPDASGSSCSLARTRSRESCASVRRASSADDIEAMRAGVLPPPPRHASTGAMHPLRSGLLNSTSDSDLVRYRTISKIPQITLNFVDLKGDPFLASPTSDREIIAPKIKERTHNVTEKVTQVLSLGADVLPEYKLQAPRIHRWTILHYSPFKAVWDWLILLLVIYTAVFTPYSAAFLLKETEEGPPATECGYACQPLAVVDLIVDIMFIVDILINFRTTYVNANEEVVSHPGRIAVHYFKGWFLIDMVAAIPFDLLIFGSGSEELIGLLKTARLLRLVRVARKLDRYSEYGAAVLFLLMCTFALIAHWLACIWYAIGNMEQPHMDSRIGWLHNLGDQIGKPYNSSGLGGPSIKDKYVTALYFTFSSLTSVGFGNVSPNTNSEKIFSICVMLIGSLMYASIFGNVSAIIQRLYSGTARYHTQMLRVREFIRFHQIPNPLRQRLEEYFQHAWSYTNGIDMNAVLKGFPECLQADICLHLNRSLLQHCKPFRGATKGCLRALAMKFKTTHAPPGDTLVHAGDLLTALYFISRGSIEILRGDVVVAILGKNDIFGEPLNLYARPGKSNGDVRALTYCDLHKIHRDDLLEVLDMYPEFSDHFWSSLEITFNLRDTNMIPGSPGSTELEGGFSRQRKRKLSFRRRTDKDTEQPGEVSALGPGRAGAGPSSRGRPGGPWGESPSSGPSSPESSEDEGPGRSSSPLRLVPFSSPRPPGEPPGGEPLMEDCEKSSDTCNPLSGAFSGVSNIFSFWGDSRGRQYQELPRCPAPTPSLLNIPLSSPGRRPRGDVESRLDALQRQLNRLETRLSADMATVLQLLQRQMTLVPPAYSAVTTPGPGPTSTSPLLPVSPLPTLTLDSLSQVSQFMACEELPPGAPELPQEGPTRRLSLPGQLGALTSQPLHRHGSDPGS", "experiment": "primary screen, population patch clamp on CHO cells stably expressing hERG", "units": {"hERG current change (%, negative = inhibition) at 1uM": "%"}}
{"smiles": "CC(=O)N1CCc2cc(S(=O)(=O)CCC(=O)N(C)c3cc(C)ccc3C)ccc21", "hERG current change (%, negative = inhibition) at 1uM": 16}
{"smiles": "Cc1nc(NC(=O)C2CC2)sc1C", "hERG current change (%, negative = inhibition) at 1uM": 0.432}
{"smiles": "CCCC1=Nc2cc(C(=O)N3CCN(c4ccccn4)CC3)ccc2Sc2ccc(C)cc21", "hERG current change (%, negative = inhibition) at 1uM": 14.2}
{"smiles": "CCCCCCn1c(COc2ccccc2F)nnc1SCC(=O)c1c(N)n(C)c(=O)n(C)c1=O", "hERG current change (%, negative = inhibition) at 1uM": 8.13}
{"smiles": "Cc1ccc(NS(=O)(=O)c2ccc(-n3cccn3)cc2)cc1F", "hERG current change (%, negative = inhibition) at 1uM": 15.7}
{"smiles": "Cn1c(-c2ccncc2)nc2ccccc21", "hERG current change (%, negative = inhibition) at 1uM": 8.49}
{"smiles": "O=C(Nc1ccccc1N1CCN(C(=O)c2ccc(Cl)cc2)CC1)c1cccc([N+](=O)[O-])c1", "hERG current change (%, negative = inhibition) at 1uM": -65.2}
{"smiles": "N/C(=N\\OC(=O)C(c1ccccc1)c1ccccc1)c1ccccn1", "hERG current change (%, negative = inhibition) at 1uM": 6.77}
{"smiles": "COc1ccc(N2C(=O)[C@@H]3Cc4ccccc4CN3C2=O)cc1", "hERG current change (%, negative = inhibition) at 1uM": 2.02}
{"smiles": "COCCNC(=O)c1c(N)n(CCC(C)C)c2nc3ccccc3nc12", "hERG current change (%, negative = inhibition) at 1uM": 3.8}
{"smiles": "CCOc1ccc(-n2nnc3c(=O)n(CC(=O)N4CCCc5ccccc54)cnc32)cc1", "hERG current change (%, negative = inhibition) at 1uM": -2.55}
{"smiles": "O=C(NCc1ccccn1)c1ccc(OC2CCN(Cc3ccc(F)cc3F)CC2)cc1", "hERG current change (%, negative = inhibition) at 1uM": 0.219}
{"smiles": "C/C=C(\\C)c1nnc(NC(=O)OCC)s1", "hERG current change (%, negative = inhibition) at 1uM": 10.7}
{"smiles": "CCOP(=O)(OCC)/C(=N/OC(=O)c1cccc([N+](=O)[O-])c1)C(N)=O", "hERG current change (%, negative = inhibition) at 1uM": 13}
{"smiles": "COc1ccccc1CC(=O)Nc1c[nH]c(=O)[nH]c1=O", "hERG current change (%, negative = inhibition) at 1uM": 29.3}
{"smiles": "O=C(N[C@@H]1CCC(=O)N(CC[C@H](Sc2ccccc2)c2ccccc2)CC1)OCc1ccccc1", "hERG current change (%, negative = inhibition) at 1uM": 5.88}
{"smiles": "CCOC(=O)C1(Cc2cccc(OC)c2)CCN(C(C)CC(C)(C)O)CC1", "note": "(stereo not shown)", "hERG current change (%, negative = inhibition) at 1uM": 3.09}
{"smiles": "Cc1ccc(F)cc1CNC(=O)C1CCC(=O)N(C2CC2)C1", "note": "(stereo not shown)", "hERG current change (%, negative = inhibition) at 1uM": 3.79}
{"smiles": "O=C(CCN1C(=O)/C(=C/c2ccccc2Cl)SC1=S)NNC(=O)c1cccnc1", "hERG current change (%, negative = inhibition) at 1uM": 16}
{"smiles": "O=C1NC(=O)C(=Cc2csc3ccccc23)C(=O)N1", "hERG current change (%, negative = inhibition) at 1uM": 5.51}
{"smiles": "Cc1cccc(Nc2nnc(SCC3CCCCO3)s2)c1", "note": "(stereo not shown)", "hERG current change (%, negative = inhibition) at 1uM": 6.7}
{"smiles": "O=C(O)C1C2C=CC(O2)C1C(=O)NCc1ccc(Cl)cc1", "note": "(stereo not shown)", "hERG current change (%, negative = inhibition) at 1uM": 8.47}
{"smiles": "CCCc1cc(N2CCN(C(=O)c3ccco3)CC2)n2c(nc3ccccc32)c1C#N", "hERG current change (%, negative = inhibition) at 1uM": -39.4}
{"smiles": "CC1Cc2cc(/C(O)=C3\\C(=O)C(=O)N(Cc4ccncc4)C3c3ccccc3F)ccc2O1", "note": "(stereo not shown)", "hERG current change (%, negative = inhibition) at 1uM": 17.9}
{"smiles": "Cc1cc(F)ccc1S(=O)(=O)Nc1ncnc2scc(-c3ccc(F)cc3)c12", "hERG current change (%, negative = inhibition) at 1uM": 12.6}
{"smiles": "O=C(CSc1nc2[nH]ncc2c(=O)[nH]1)N1CCCC1", "hERG current change (%, negative = inhibition) at 1uM": 10.4}
{"smiles": "CCOP(=O)(c1ccc(N(C)C)cc1)C(O)c1ccccc1OC", "note": "(stereo not shown)", "hERG current change (%, negative = inhibition) at 1uM": 5.04}
{"smiles": "COc1ccc(NC(=O)CN2CCC(C(N)=O)CC2)cc1", "hERG current change (%, negative = inhibition) at 1uM": 2.62}
{"smiles": "Cc1ccn2c(C(=O)N/N=C\\c3cccs3)c(C)nc2c1", "hERG current change (%, negative = inhibition) at 1uM": 5.01}
{"smiles": "CC1Cc2ccccc2N1C(=O)COC(=O)c1c2c(nc3ccccc13)CCCCC2", "note": "(stereo not shown)", "hERG current change (%, negative = inhibition) at 1uM": 12}
{"smiles": "COc1cc(NS(=O)(=O)c2ccc(NS(=O)(=O)c3ccc(NC(C)=O)cc3)cc2)nc(OC)n1", "hERG current change (%, negative = inhibition) at 1uM": 18.3}
{"smiles": "FC(F)(F)c1cc(Sc2ccccc2)nc(-c2ccccn2)n1", "hERG current change (%, negative = inhibition) at 1uM": -1.68}
{"smiles": "S=C1NCCOCCOCCOCCNC(=S)N2CCOCCOCCN1CCOCCOCC2", "hERG current change (%, negative = inhibition) at 1uM": 14.6}
{"smiles": "CC(Nc1cccc2ccccc12)C(=O)N/N=C/c1ccccn1", "note": "(stereo not shown)", "hERG current change (%, negative = inhibition) at 1uM": 11.1}
{"smiles": "CCOCCn1c(SCc2c(F)cccc2Cl)nc2c1c(=O)[nH]c(=O)n2C", "hERG current change (%, negative = inhibition) at 1uM": 4.9}
{"smiles": "COc1ccccc1NC(=O)COc1ccc(-c2nn(C)c(=O)c3ccccc23)cc1", "hERG current change (%, negative = inhibition) at 1uM": 1.15}
{"smiles": "CN(C)c1nc(N)c([N+](=O)[O-])c(NCCO)n1", "hERG current change (%, negative = inhibition) at 1uM": 12.4}
{"smiles": "COc1ccccc1NC(=O)C1CC(=O)N(c2ccc(F)cc2)C1", "note": "(stereo not shown)", "hERG current change (%, negative = inhibition) at 1uM": 7.67}
{"smiles": "COc1ccccc1C(=O)NC(=S)Nc1cccnc1Cl", "hERG current change (%, negative = inhibition) at 1uM": 4.44}
{"smiles": "Brc1cccc(-c2nc3cccnc3nc2-c2cccc(Br)c2)c1", "hERG current change (%, negative = inhibition) at 1uM": 20.2}
{"smiles": "Cc1cccc(NC(=S)N2CCC(N(C)CC3CCCO3)CC2)c1", "note": "(stereo not shown)", "hERG current change (%, negative = inhibition) at 1uM": -9.04}
{"smiles": "CCCCC(c1nnnn1C1CCCC1)N1CCN(C(=O)c2ccco2)CC1.Cl", "note": "(stereo not shown)", "hERG current change (%, negative = inhibition) at 1uM": -13.5}
{"smiles": "CC(C)CN(C1CCS(=O)(=O)C1)S(=O)(=O)c1ccc2ccccc2c1", "note": "(stereo not shown)", "hERG current change (%, negative = inhibition) at 1uM": -4.27}
{"smiles": "CNC(=O)O/N=C/c1nn(C(=O)C(C)(C)C)cc1Br", "hERG current change (%, negative = inhibition) at 1uM": 11.8}
{"smiles": "N=C1/C(=C\\c2coc3ccccc3c2=O)C(=O)N=C2SC(c3ccncc3)=NN12", "hERG current change (%, negative = inhibition) at 1uM": 6.88}
{"smiles": "CC(=O)Nc1ccc(NC(=O)C(C)Sc2n[nH]c(-c3cccs3)n2)cc1", "note": "(stereo not shown)", "hERG current change (%, negative = inhibition) at 1uM": 3.43}
{"smiles": "COc1ccc(-c2cc(=O)oc3cc(OCC(=O)N[C@@H](Cc4c[nH]c5ccccc45)C(=O)O)ccc23)cc1", "hERG current change (%, negative = inhibition) at 1uM": -9.39}
{"smiles": "COc1cc(/C=N/N(C)C)ccc1OC(=O)c1cccs1", "hERG current change (%, negative = inhibition) at 1uM": 12.8}
{"smiles": "OCCCc1nc2n(n1)C(c1ccccc1)C=C(c1ccccc1)N2", "note": "(stereo not shown)", "hERG current change (%, negative = inhibition) at 1uM": 1.51}
{"smiles": "CC(=O)N1CCN(c2ccc(NC(=O)c3ccc(C)cc3)cc2)CC1", "hERG current change (%, negative = inhibition) at 1uM": 14.7}
{"smiles": "CCOC(=O)c1ccccc1NC(=O)CSc1nc2[nH]ncc2c(=O)[nH]1", "hERG current change (%, negative = inhibition) at 1uM": 8.29}
{"smiles": "COc1ccccc1C1C(C(N)=O)=C(C)Nc2nc(-c3ccccc3Cl)nn21", "note": "(stereo not shown)", "hERG current change (%, negative = inhibition) at 1uM": 6.26}
{"smiles": "CCc1cc(-c2n[nH]c(C)c2-c2nc3ccccc3s2)c(O)cc1OCC(=O)NN", "hERG current change (%, negative = inhibition) at 1uM": 0.0876}
{"smiles": "CCOCc1c(C(=O)Nc2ccc(OC)nc2)oc2ccccc12", "hERG current change (%, negative = inhibition) at 1uM": 1.82}
{"smiles": "Cc1ccc(S(=O)(=O)/N=C/c2c(O)ccc3ccccc23)cc1", "hERG current change (%, negative = inhibition) at 1uM": 12.8}
